Molecular target: hepatitis C virus RNA dependent polymerase (NS5B) (Hepacivirus hominis (Hepatitis C virus), UniProt P26663)
Test: Inhibition of NS5B RNA dependent RNA polymerase activity (SPA, UMP-[5,6 3H] incorporation)
[1] = IC50 μM, first compound table (printed title TABLE 10; Table 1)

O=C(NCCc1c[nH]c2ccc(O)cc12)c1ccc2c(c1)nc(-c1ccoc1)n2C1CCCCC1 [Entry 11001]
IC50 (IC50, Table 11): < 1 µM

O=C(O)c1ccc(C(=O)NNC(=O)c2ccc3c(c2)nc(-c2ccoc2)n3C2CCCCC2)cc1 [Entry 1302, 4-{N′-[1-(1-Cyclohexyl-2-furan-3-yl-1H-benzimidazol-5-yl)-methanoyl]-hydrazinocarbonyl}-benzoic Acid]
IC50 [1]: 1 to 5 µM

O=C(N[C@@H](Cc1c[nH]c2ccc(O)cc12)C(=O)O)c1ccc2c(n1)nc(-c1ccoc1)n2C1CCCCC1 [Entry 5002, (S)-2-{[1-(1-Cyclohexyl-2-furan-3-yl-1H-imidazo[4,5-b]pyridin-5-yl)-methanoyl]-amino}-3-(5-hydroxy-1H-indol-3-yl)-propionic Acid]
IC50 (IC50 μM, Table 5): < 1 µM

CN(C)c1nc([C@H](Cc2c[nH]c3ccc(O)cc23)NC(=O)c2ccc3c(c2)nc(-c2ccoc2)n3C2CCCCC2)cs1 [Entry 14005, 1-Cyclohexyl-2-furan-3-yl-1H-benzimidazole-5-carboxylic Acid [(S)-1-(2-Dimethylamino-thiazol-4-yl)-2-(5-hydroxy-1H-indol-3-yl)-ethyl]-amide]
IC50 (IC50, Table 14): < 1 µM

C=CCC(NC(=O)c1ccc2c(c1)nc(-c1ccccn1)n2C1CCCCC1)c1ccc(OC)c(OC)c1 (centres unmarked) [Entry 2013]
IC50 (IC50 μM, Table 2): 10 to 25 µM

CC(C)(Oc1ccc2[nH]cc(C[C@H](NC(=O)c3ccc4c(c3)nc(-c3ccoc3)n4C3CCCCC3)C(=O)O)c2c1)C(=O)O [Entry 11010]
IC50 (IC50, Table 11): < 1 µM

O=C(N[C@@H](Cc1ccc(O)cc1)c1noc(C(F)(F)F)n1)c1ccc2c(c1)nc(-c1ccoc1)n2C1CCCCC1
IC50 [1]: 5 to 10 µM

[N-]=[N+]=Nc1ccc(C[C@H](NC(=O)c2ccc3c(c2)nc(-c2ccoc2)n3C2CCCCC2)C(=O)O)cc1 [Entry 1027]
IC50 [1]: 1 to 5 µM

O=C(NC1CCNCC1)c1ccc2c(c1)nc(-c1ccoc1)n2C1CCCCC1 [Entry 1185]
IC50 [1]: 5 to 10 µM

O=C(N[C@@H](Cc1c[nH]c2ccc(O)cc12)C(=O)O)c1ccc2c(c1)nc(C(F)(F)F)n2C1CCCCC1 [Entry 2111]
IC50 (IC50 μM, Table 2): 1 to 5 µM

Cc1nc2cc(C(=O)N[C@@H](Cc3c[nH]c4ccc(O)cc34)C(=O)O)ccc2n1C1CCCCC1 [Entry 2040]
IC50 (IC50 μM, Table 2): 10 to 25 µM

COc1ccc(CNC(=O)c2ccc3c(c2)nc(-c2ccc(OCC(=O)NCCCN(C)C)cc2)n3C2CCCCC2)cc1OC [Entry 2062, 1-Cyclohexyl-2-{4-[(3-dimethylamino-propylcarbamoyl)-methoxy]-phenyl}-1H-benzoimidazole-5-carboxylic Acid 3,4-Dimethoxybenzyl Amide]
IC50 (IC50 μM, Table 2): 5 to 10 µM

COc1ccc(C(NC(=O)c2ccc3c(c2)nc(-c2ccc(OC(C)C)cc2)n3C2CCCCC2)C(=O)O)cc1OC (centres unmarked) [Entry 2069]
IC50 (IC50 μM, Table 2): 1 to 5 µM

NC(=O)Nc1ccc(C[C@H](NC(=O)c2ccc3c(c2)nc(-c2ccoc2)n3C2CCCCC2)C(=O)O)cc1 [Entry 16026, (S)-2-{[1-(1-Cyclohexyl-2-furan-3-yl-1H-benzoimidazol-5-yl)-methanoyl]-amino}-3-(4-ureidophenyl)-propionic Acid]
IC50 (IC50, Table 16): < 1 µM

O=C(N[C@@H](Cc1ccc(O)cc1)C(=O)O)c1ccc2c(c1)nc(-c1ccccn1)n2C1CCCCC1 [Entry 2060]
IC50 (IC50 μM, Table 2): 1 to 5 µM

O=C(N[C@@H](Cc1ccc(-c2nnn[nH]2)cc1)C(=O)O)c1ccc2c(c1)nc(-c1ccoc1)n2C1CCCCC1 [Entry 16017, (S)-2-{[1-(1-Cyclohexyl-2furan-3-yl-1H-benzoimidazol-5-yl)methanoyl]amino}-3-[4-(1H-tetrazol-5-yl)phenyl]propionic Acid]
IC50 (IC50, Table 16): < 1 µM

Cn1cc(C[C@H](NC(=O)c2ccc3c(c2)nc(-c2ccoc2)n3C2CCCCC2)C(=O)O)c2cc(OCC(=O)O)ccc21 [Entry 11016]
IC50 (IC50, Table 11): < 1 µM

Nc1nc([C@H](Cc2ccc(-c3nnn[nH]3)cc2)NC(=O)c2ccc3c(c2)nc(-c2ccoc2)n3C2CCCCC2)cs1 [Entry 16059]
IC50 (IC50, Table 16): < 1 µM

O=C(N[C@@H](Cc1c[nH]c2ccc(O)cc12)c1cscn1)c1ccc2c(c1)nc(-c1ccc[nH]1)n2C1CCCCC1 [Entry 15003]
IC50 (IC50, Table 15): < 1 µM

O=C(O)COc1ccccc1CN[C@H]1CC[C@H](NC(=O)c2ccc3c(c2)nc(-c2ccoc2)n3C2CCCCC2)CC1 [Entry 1264]
IC50 [1]: 5 to 10 µM

O=C(O)CCNC(=O)N1CCC(CNC(=O)c2ccc3c(c2)nc(-c2ccoc2)n3C2CCCCC2)CC1 [Entry 1211]
IC50 [1]: 10 to 25 µM

O=C(O)c1cccc(-c2nc3cc(C(=O)O)ccc3n2C2CCCCC2)c1 [Entry 7007]
IC50 (IC50 μM, Table 7): 10 to 25 µM

O=C(O)CCCOc1ccc(C[C@H](NC(=O)c2ccc3c(c2)nc(-c2ccoc2)n3C2CCCCC2)C(=O)O)cc1 [Entry 16043]
IC50 (IC50, Table 16): < 1 µM

CN(C)CCCNC(=O)[C@H](Cc1ccc(O)cc1)NC(=O)c1ccc2c(c1)nc(-c1ccoc1)n2C1CCCCC1 [Entry 16048]
IC50 (IC50, Table 16): < 1 µM

Cc1nc(C)c(-c2nc3cc(C(=O)N[C@@H](Cc4c[nH]c5ccc(O)cc45)C(=O)O)ccc3n2C2CCCCC2)s1 [Entry 2123]
IC50 (IC50 μM, Table 2): 1 to 5 µM

CN(C)NC(=O)c1ccc2c(c1)nc(-c1ccoc1)n2C1CCCCC1 [Entry 1300]
IC50 [1]: 5 to 10 µM

CC(C)(Oc1ccc2[nH]cc(CCNC(=O)c3ccc4c(c3)nc(-c3ccoc3)n4C3CCCCC3)c2c1)C(=O)O [Entry 1034]
IC50 [1]: 1 to 5 µM

NC(=O)[C@H](Cc1c[nH]c2ccc(Nc3c(O)c(=O)c3=O)cc12)NC(=O)c1ccc2c(c1)nc(-c1ccoc1)n2C1CCCCC1 [Entry 13004, 1-Cyclohexyl-2-furan-3-yl-1H-benzimidazole-5-carboxylic Acid {(S)-1-Carbamoyl-2-[5-(2-hydroxy-3,4-dioxo-cyclobut-1-enylamino)-1H-indol-3-yl]-ethyl}-amide]
IC50 (IC50, Table 13): < 1 µM

COc1ccc([C@H](NC(=O)c2ccc3c(c2)nc(-c2ccccn2)n3C2CCCCC2)C(=O)O)cc1OC [Entry 2059]
IC50 (IC50 μM, Table 2): 1 to 5 µM

O=C(NC(C(=O)O)c1ccc2c(c1)OCO2)c1ccc2c(c1)nc(-c1ccoc1)n2C1CCCCC1 (centres unmarked) [Entry 1009]
IC50 [1]: 1 to 5 µM

COc1ccc(C(NC(=O)c2ccc3c(c2)nc(-c2ccoc2)n3C2CCCCC2O)C(=O)O)cc1OC (centres unmarked) [Entry 3001]
IC50 (IC50 μM, Table 3): 5 to 10 µM

O=C(N[C@@H](Cc1c[nH]c2ccc(O)cc12)C(=O)NCCN1CCOCC1)c1ccc2c(c1)nc(-c1ccoc1)n2C1CCCCC1 [Entry 13017, 1-Cyclohexyl-2-furan-3-yl-1H-benzimidazole-5-carboxylic Acid [(S)-2-(5-Hydroxy-1H-indol-3-yl)-1-(2-morpholin-4-yl-ethylcarbamoyl)-ethyl]-amide]
IC50 (IC50, Table 13): < 1 µM

Cc1nc([C@H](Cc2ccc(OCC(=O)O)cc2)NC(=O)c2ccc3c(c2)nc(-c2ccoc2)n3C2CCCCC2)cs1 [Entry 1131, {4-[(S)-2-{[1-(1-Cyclohexyl-2-furan-3-yl-1H-benzimidazol-5-yl)-methanoy]-amino}-2-(2-methyl-thiazol-4-yl)-ethyl]-phenoxy}-acetic Acid]
IC50 [1]: 1 to 5 µM

O=C(N[C@@H](Cc1ccc(O)cc1)C(=O)O)c1ccc2c(c1)nc(-c1ccoc1)n2C1CCCCC1 [Entry 1040, (S)-2-([1-(1-Cyclohexyl-2-furan-3-yl-1H-benzoimidazol-5-yl)methanoyl]amino}-3-(4-hydroxyphenyl)propionic Acid]
IC50 [1]: < 1 µM

O=C(N[C@@H](Cc1c[nH]c2ccc(-c3nnn[nH]3)cc12)C(=O)O)c1ccc2c(c1)nc(-c1ccoc1)n2C1CCCCC1 [Entry 11022, (S)-2-{[1-(1-Cyclohexyl-2-furan-3-yl-1H-benzoimidazol-5-yl)-methanoyl]-amino}-3-[5(1H -tetrazol-5-yl)-1H-indol-3-yl]-propionic Acid]
IC50 (IC50, Table 11): < 1 µM

From US6448281B1 (Boehringer Ingelheim (Canada) Ltd., priority 2000, dated 2002)
